Molecular target: the molecule itself
Experiment: SEC

B1: DYNLL[…]A (natural protein)
chain: not shown
stoichiometry N: 2
